Measurements reported in paper PMC10470909, “cis-Decalin-containing tetramic acids as inhibitors of insect steroidogenic glutathione S-transferase Noppera-bo” (PLOS ONE, 2023).

Legend:
[1] = target: AeNobo (recombinant Noppera-bo) (Aedes aegypti, UniProt A0A1S4FIB3)
[2] = target: T1, DmNobo (recombinant Noppera-bo) (Drosophila melanogaster, UniProt Q7JYX0); details: for inhibitory activity against DmNobo (in words): 3,4-DNADCF assay
[3] = target: T1, DmNobo (recombinant Noppera-bo); parameters: method as in PMID 35172816, PMID 32241910, PMID 33746549; details: previous high-throughput screens; cited from earlier work
[4] = system: mitochondrial respiration in HeLa cells; experiment: Measurement of mitochondrial respiration (OCR/ECAR, Seahorse XFe96 extracellular flux analyzer); details: OCR/ECAR phenotype

T1 sequence (Q7JYX0 whole entry): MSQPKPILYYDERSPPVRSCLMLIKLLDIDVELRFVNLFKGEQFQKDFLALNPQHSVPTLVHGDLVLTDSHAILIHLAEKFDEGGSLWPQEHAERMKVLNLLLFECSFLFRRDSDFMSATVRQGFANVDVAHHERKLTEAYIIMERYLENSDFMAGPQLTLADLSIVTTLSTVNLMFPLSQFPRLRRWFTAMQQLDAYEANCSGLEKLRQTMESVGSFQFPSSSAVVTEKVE

Structure (SMILES) | IC50 [1] [µM] | IC50 [2] [µM] | inhibitory activity against DmNobo (in words) [2] | DmNobo inhibition (in words) [3] | mitochondrial inhibitory activity (in words) [4]
C/C=C/C=C/[C@H]1C(C)=C[C@H]2C[C@@H](C)CC[C@@H]2[C@@]1(C)C(=O)C1=C(O)[C@@H](CO)NC1=O [Compound 5, N-demethylphomasetin] | > 20 | 16.1 ± 1.33 | moderate activity | – | –
C[C@]12CC[C@@H]3c4ccc(O)cc4CC[C@H]3[C@@H]1CC[C@@H]2O [17β-estradiol] | – | – | – | identified as a DmNobo inhibitor | –
C/C=C/C=C/[C@@H]1C(C)=C[C@@H]2C[C@@H](C)CC[C@@H]2[C@@]1(C)C(=O)C1=C(O)[C@@H](CO)NC1=O [Compound 4, N-demethyl-cis-phomasetin] | > 20 | 9.04 ± 3.32 | – | – | –
C/C=C/[C@H]1C=C[C@H]2C[C@H](C)CC[C@H]2[C@]1(C)C(=O)C1=C(O)[C@H](CO)N(C)C1=O [Compound 3, cis-equisetin] | > 20 | 8.04 ± 2.72 | – | – | higher mitochondrial inhibitory activity than the trans isomer 1
C/C=C/C=C/[C@H]1C(C)=C[C@H]2C[C@@H](C)CC[C@@H]2[C@@]1(C)C(=O)C1=C(O)[C@@H](CO)N(C)C1=O [Compound 2, phomasetin] | > 20 | – | moderate activity | – | –
CC[C@H](C)C(=O)O[C@H]1CCC=C2C=C[C@H](C)[C@H](CC[C@@H]3C[C@@H](O)CC(=O)O3)[C@H]21 [mevastatin, reference compound] | – | – | little effect | – | –
C/C=C/[C@@H]1C=C[C@@H]2C[C@H](C)CC[C@H]2[C@]1(C)C(=O)C1=C(O)[C@H](CO)N(C)C1=O [Compound 1, equisetin] | > 20 | 16.4 ± 1.24 | moderate activity | – | –
